Results taken from PMC4336329 (PLoS ONE, 2015).
Among all 310,000 compounds or so, about 14,000 (4.5%) showed an effect of 50% or more. The effect is printed as a negative number. The list shows a part of the results.
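Note: peak tail current of the secondary pulse compared with the same well before compound.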

Each molecule was assayed against human ether-à-go-go-related gene (hERG) potassium channel (human, UniProt Q12809) (assay: primary screen, population patch clamp on CHO cells stably expressing hERG).
human ether-à-go-go-related gene (hERG) potassium channel, sequence (Q12809 whole entry, looked up): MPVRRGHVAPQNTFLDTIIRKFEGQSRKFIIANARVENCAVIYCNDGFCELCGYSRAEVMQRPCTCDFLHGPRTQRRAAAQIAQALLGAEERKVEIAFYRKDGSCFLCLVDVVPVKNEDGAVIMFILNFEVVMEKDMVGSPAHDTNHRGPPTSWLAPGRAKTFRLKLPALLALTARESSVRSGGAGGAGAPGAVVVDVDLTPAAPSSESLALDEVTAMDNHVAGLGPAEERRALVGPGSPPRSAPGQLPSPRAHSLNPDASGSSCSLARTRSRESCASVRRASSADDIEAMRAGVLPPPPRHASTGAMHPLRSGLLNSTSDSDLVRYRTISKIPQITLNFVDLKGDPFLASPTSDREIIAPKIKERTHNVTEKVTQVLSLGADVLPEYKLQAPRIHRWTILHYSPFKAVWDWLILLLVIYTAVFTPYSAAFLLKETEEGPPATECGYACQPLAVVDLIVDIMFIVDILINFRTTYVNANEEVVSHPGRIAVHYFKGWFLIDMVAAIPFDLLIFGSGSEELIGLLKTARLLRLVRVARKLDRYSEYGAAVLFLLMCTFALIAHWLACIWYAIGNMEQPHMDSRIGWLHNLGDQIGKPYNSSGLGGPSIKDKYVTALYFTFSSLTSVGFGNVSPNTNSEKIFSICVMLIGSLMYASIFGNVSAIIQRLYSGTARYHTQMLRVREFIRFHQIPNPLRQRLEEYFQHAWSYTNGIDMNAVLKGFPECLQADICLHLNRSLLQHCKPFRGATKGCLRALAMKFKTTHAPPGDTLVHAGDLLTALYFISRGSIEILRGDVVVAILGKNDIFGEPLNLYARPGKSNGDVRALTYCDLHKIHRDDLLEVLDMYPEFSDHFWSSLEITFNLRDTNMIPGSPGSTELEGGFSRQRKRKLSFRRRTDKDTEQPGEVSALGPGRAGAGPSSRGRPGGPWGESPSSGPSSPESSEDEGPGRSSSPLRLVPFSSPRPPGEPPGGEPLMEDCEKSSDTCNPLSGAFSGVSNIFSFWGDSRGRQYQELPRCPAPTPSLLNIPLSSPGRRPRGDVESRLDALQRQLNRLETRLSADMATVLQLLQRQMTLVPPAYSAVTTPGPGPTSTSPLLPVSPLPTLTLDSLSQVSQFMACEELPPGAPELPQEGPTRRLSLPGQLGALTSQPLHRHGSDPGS
With `COC(=O)c1ccc(NC(=O)CSc2ccccc2)cc1` the “hERG current change (%, negative = inhibition) at 10uM” value was 3.37%.
With `Cc1cc(N)n(C2CCN(C)CC2)n1` the “hERG current change (%, negative = inhibition) at 10uM” value was 1.99%.
With `CS(=O)(=O)Nc1ccc(C(=O)Nc2ccccc2C(=O)NCc2ccco2)cc1` the “hERG current change (%, negative = inhibition) at 10uM” value was -69.2%.
For `CCC1=[N+]([O-])C(C)(/C(C)=N\O)N(O)C1(C)C` (centres unmarked), the “hERG current change (%, negative = inhibition) at 10uM” value was 6.42%.
In the case of `Cc1c(OCc2nn[nH]n2)ccc2c3c(c(=O)oc12)CCC(C)C3` (centres unmarked), the “hERG current change (%, negative = inhibition) at 10uM” value is reported as 5.16%.
With `CC(NC(=O)COC(=O)C1CC2CCCC(C1)C2=O)c1ccccc1` (centres unmarked) the “hERG current change (%, negative = inhibition) at 10uM” value was 2.23%.
In the case of `O=C(NC1CCCC1)C(c1ccccc1)N(C(=O)c1ccno1)c1cccnc1` (centres unmarked), the “hERG current change (%, negative = inhibition) at 10uM” value is reported as 5.57%.
In the case of `CC(=O)c1ccc(NS(=O)(=O)c2cccc(C)c2)cc1`, the “hERG current change (%, negative = inhibition) at 10uM” value is reported as -1.86%.
In the case of `O=C(Nc1ccccc1)N1CCC(O)(c2cccc(C(F)(F)F)c2)CC1`, the “hERG current change (%, negative = inhibition) at 10uM” value is reported as -6.72%.
With `Cc1ccc(S(=O)(=O)CC(O)CN2CCCC2=O)cc1` (centres unmarked) the “hERG current change (%, negative = inhibition) at 10uM” value was 26.2%.
For `Cc1ccc(OCCSc2nc3ccccc3n2CC(=O)O)cc1C`, the “hERG current change (%, negative = inhibition) at 10uM” value was 14.6%.
For `O=C1CN(C(=O)CSc2ccc(-c3ccc(F)cc3)nn2)c2ccccc2N1`, the “hERG current change (%, negative = inhibition) at 10uM” value was -42.5%.
For `COc1ccc(NS(=O)(=O)c2ccc(C)c(C(=O)NCC(c3cccs3)N3CCOCC3)c2)cc1` (centres unmarked), the “hERG current change (%, negative = inhibition) at 10uM” value was -20.3%.
With `CCOC(=O)c1ccc(N2CCCCC2)c(NS(=O)(=O)c2cccc(C(F)(F)F)c2)c1` the “hERG current change (%, negative = inhibition) at 10uM” value was -0.976%.
With `O=S(=O)(c1ccc2c(c1)C(=NO)c1cc(S(=O)(=O)N3CCCCC3)ccc1-2)N1CCCCC1` the “hERG current change (%, negative = inhibition) at 10uM” value was 12.9%.
`c1ccc(Cc2c[nH]c3ccccc23)cc1` was tested, and the “hERG current change (%, negative = inhibition) at 10uM” value was 6.17%.
In the case of `CC(C)N(CCNCC(O)COc1ccc(C(C)(C)c2ccccc2)cc1)C(C)C.O=C(O)C(=O)O` (centres unmarked), the “hERG current change (%, negative = inhibition) at 10uM” value is reported as -79%.
In the case of `CC(C)Oc1cccc(C(=O)C2CCCN(C(=O)CCc3cnn(C)c3)C2)c1` (centres unmarked), the “hERG current change (%, negative = inhibition) at 10uM” value is reported as -0.965%.
For `Cc1ccc(C(C)(C)NC(=O)C2CCC(=O)N(CCCN3CCOCC3)C2)cc1` (centres unmarked), the “hERG current change (%, negative = inhibition) at 10uM” value was 2.36%.
In the case of `O=C(NCC(=O)N1CCC2(CC1)NCCc1[nH]cnc12)c1ccc(Br)cc1`, the “hERG current change (%, negative = inhibition) at 10uM” value is reported as 5.49%.
For `Cc1cccc(CCNc2nc3ccccc3n3nnnc23)c1`, the “hERG current change (%, negative = inhibition) at 10uM” value was 6.79%.
With `Cc1ccc(C)c(OCC(=O)N2CCN(c3ncccn3)CC2)c1` the “hERG current change (%, negative = inhibition) at 10uM” value was 2.88%.
With `CCOc1ccc(NC(=O)CN(C)CC(=O)NC2CCCc3ccccc32)cc1OCC` (centres unmarked) the “hERG current change (%, negative = inhibition) at 10uM” value was -7.73%.
In the case of `Cc1ccc(N2C(=O)/C(=C/c3ccc(CN(CCC#N)S(C)(=O)=O)o3)C(=O)NC2=S)cc1`, the “hERG current change (%, negative = inhibition) at 10uM” value is reported as 15.9%.
With `Cc1ccc(NC(=O)C/C(N)=N/OC(=O)Nc2ccc(C)c(Cl)c2)cc1` the “hERG current change (%, negative = inhibition) at 10uM” value was 4.56%.
In the case of `COc1ccc(-c2csc(NC(=O)c3cc(C)oc3C)n2)cc1OC`, the “hERG current change (%, negative = inhibition) at 10uM” value is reported as -14.7%.
`Cc1cc(N2CCOCC2)ccc1/C=C1\NC(=O)N(CC(=O)Nc2ccccc2C)C1=O` was tested, and the “hERG current change (%, negative = inhibition) at 10uM” value was 9.59%.
For `CC1(C)NC(=O)N(CC(O)CN2CCCC2)C1=O` (centres unmarked), the “hERG current change (%, negative = inhibition) at 10uM” value was 7.72%.
For `Cc1noc(C)c1S(=O)(=O)NCc1cccc(Cl)c1`, the “hERG current change (%, negative = inhibition) at 10uM” value was -2.56%.
In the case of `Nc1[nH]c(N=NC(=O)c2ccc(Cl)cc2)c2ccccc12`, the “hERG current change (%, negative = inhibition) at 10uM” value is reported as 5.16%.
`O=C(N/N=C/c1ccccc1Br)c1ccc(CSc2cccc3cccnc23)cc1` was tested, and the “hERG current change (%, negative = inhibition) at 10uM” value was 2.55%.
`Cn1nc(OCC(N)=O)ccc1=O` was tested, and the “hERG current change (%, negative = inhibition) at 10uM” value was 24.8%.
`O=C(OC(C(=O)NC1CCCCC1)c1ccc(C(F)(F)F)cc1)c1ccco1` (centres unmarked) was tested, and the “hERG current change (%, negative = inhibition) at 10uM” value was 4.41%.
With `O=C1N(CC(=O)N2CCc3ccccc32)CCN1Cc1ccc(Cl)cc1` the “hERG current change (%, negative = inhibition) at 10uM” value was -11.8%.
With `NS(=O)(=O)c1ccc(NC(=O)c2cccc3ccccc23)cc1` the “hERG current change (%, negative = inhibition) at 10uM” value was 5.59%.
`COc1cc(CNCCCN2CCOCC2)cc(Br)c1OCc1ccc(Cl)cc1.Cl` was tested, and the “hERG current change (%, negative = inhibition) at 10uM” value was -35.5%.
With `CCOC(=O)c1sc2nc(-c3cccnc3)ccc2c1N` the “hERG current change (%, negative = inhibition) at 10uM” value was 1.77%.
With `CCN1CCN(C2CC(=O)NC2=O)CC1` (centres unmarked) the “hERG current change (%, negative = inhibition) at 10uM” value was 2.12%.
`CCC(C)(C)n1nnnc1C(c1ccccn1)N1CCN(c2cccc(OC)c2)CC1` (centres unmarked) was tested, and the “hERG current change (%, negative = inhibition) at 10uM” value was -1.13%.
In the case of `Cc1ccc(-c2cc(C(F)(F)F)n3nc(C(=O)N4CCN5CCCC5C4)cc3n2)cc1` (centres unmarked), the “hERG current change (%, negative = inhibition) at 10uM” value is reported as -48.3%.
In the case of `CNc1ccncc1S(=O)(=O)NC`, the “hERG current change (%, negative = inhibition) at 10uM” value is reported as 12.5%.
`O=C(COC(=O)c1ccccc1C(=O)c1ccccc1)c1ccco1` was tested, and the “hERG current change (%, negative = inhibition) at 10uM” value was -24.6%.
`CCOC(=O)c1noc(C)c1C(=O)Nc1nc(C)cc(C)n1` was tested, and the “hERG current change (%, negative = inhibition) at 10uM” value was 11.5%.
In the case of `O=C(CSc1nc2ccc([N+](=O)[O-])cc2[nH]1)NC1CCCC1`, the “hERG current change (%, negative = inhibition) at 10uM” value is reported as -19.3%.
`COc1ccc(S(=O)(=O)N2CCOCC2)cc1NC(=O)CN1C(=O)NC2(CCCC2)C1=O` was tested, and the “hERG current change (%, negative = inhibition) at 10uM” value was 9.31%.
For `O=C(CSc1n[nH]c(-c2ccccc2F)n1)NCC(=O)Nc1ccc(F)c(F)c1F`, the “hERG current change (%, negative = inhibition) at 10uM” value was 6.62%.
With `N#Cc1cc(-c2ccccc2)[nH]c1-c1nccc2ccccc12` the “hERG current change (%, negative = inhibition) at 10uM” value was 8.97%.
For `CC1CC(C)CN(CCOCCSc2ccccc2)C1.O=C(O)C(=O)O` (centres unmarked), the “hERG current change (%, negative = inhibition) at 10uM” value was -45.1%.
In the case of `Cc1ccc(N2C(=O)[C@@H]3C(C(=O)C(c4ccccc4)c4ccccc4)=NN[C@@H]3C2=O)cc1`, the “hERG current change (%, negative = inhibition) at 10uM” value is reported as -0.905%.
In the case of `Cc1cc(OCC#N)nc(N)n1`, the “hERG current change (%, negative = inhibition) at 10uM” value is reported as 3.69%.
For `CCCOc1ccc(C(=O)NC(C)C(=O)O)cc1` (centres unmarked), the “hERG current change (%, negative = inhibition) at 10uM” value was 4.87%.
For `CCN(CC)C(=O)CSc1nc2sc3c(c2c(=O)n1-c1ccc(C)cc1)CC(C)(C)SC3`, the “hERG current change (%, negative = inhibition) at 10uM” value was -20.3%.
In the case of `COc1ccc(OC)c(NC(=O)CN2C(=O)C3(OCCCO3)c3ccccc32)c1`, the “hERG current change (%, negative = inhibition) at 10uM” value is reported as -4.13%.
For `COc1ccc(S(=O)(=O)Nc2cccc(C)n2)c2ccccc12`, the “hERG current change (%, negative = inhibition) at 10uM” value was -1.83%.
For `Cc1cccc(C)c1NC(=O)COC(=O)c1ccc(N2CCCC2)c([N+](=O)[O-])c1`, the “hERG current change (%, negative = inhibition) at 10uM” value was -1.93%.
`COc1cc(/C=C2/SC(=O)NC2=O)ccc1OCc1ccccc1` was tested, and the “hERG current change (%, negative = inhibition) at 10uM” value was 17.9%.
